Source: the supplement of paper PMC9151546
± gives the standard deviation of the averaged measurements. Most values come without repeats; read them as rough.

Tests used:
CHO-K1 [1] = experiment: micronucleus frequency (% of nucleated events); higher = more micronuclei (genotoxic)
CHO-K1 [2] = experiment: hypodiploid nuclei frequency (% of nucleated events); higher = more hypodiploid events (aneugenic)
Experimental: (§1)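 Flow-cytometric in vitro micronucleus assay (Litron MicroFlow) in CHO-K1 cells in 96-well plates, 19 concentrations (4.5-200 µM, n=1 per concentration). Without S9, cells were exposed for 24 h and sampled at 48 h. With Aroclor 1254-induced rat liver S9, cells were exposed for 3-4 h and sampled at 27-28 h. Read-outs are %MN and %hypodiploid nuclei relative to nucleated events, and relative survival as the nuclei-to-bead ratio versus the 1% DMSO vehicle control (x100).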

CHO-K1 [3] = experiment: relative survival (nuclei to bead ratio vs DMSO control) (% of vehicle control); higher = more surviving cells
Experimental: as §1
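Wherever hypodiploid nuclei frequency (% of nucleated events) is given: hypodiploid nuclei gated on a flow cytometer with 488 nm excitation after SYTOX Green staining, cultures at 37 °C, positive controls vinblastine without S9 and cyclophosphamide with S9.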
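Wherever micronucleus frequency (% of nucleated events) is given: cells lysed with nuclei stained by SYTOX Green, then micronucleus-gated events counted against nucleated events by flow cytometry with 488 nm excitation.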
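Wherever relative survival (nuclei to bead ratio vs DMSO control) is given: Lysed-cell nuclei stained with SYTOX Green and counted against counting beads by flow cytometry at 488 nm excitation, with vinblastine (no S9) and cyclophosphamide (plus S9) as positive controls.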

Cc1ccc(S(=O)(=O)NC(=O)NN2CCCCCC2)cc1 [Tolazamide]
Conditions	hypodiploid nuclei frequency, CHO-K1 [2] [%]	micronucleus frequency, CHO-K1 [1] [%]	relative survival, CHO-K1 [3]
concentration: 4.5 (µM), S9 metabolic activation: with S9, exposure time: 3-4 hours	0.21 ± 0.014	1.55 ± 0.014	86.6 ± 26
concentration: 4.5 (µM), S9 metabolic activation: without S9, exposure time: 24 hours	0.72	1.92	177
concentration: 5.63 (µM), S9 metabolic activation: with S9, exposure time: 3-4 hours	0.23 ± 0.13	2 ± 0.42	97.1 ± 30
concentration: 5.63 (µM), S9 metabolic activation: without S9, exposure time: 24 hours	0.7	1.88	153
concentration: 7.04 (µM), S9 metabolic activation: with S9, exposure time: 3-4 hours	0.19 ± 0.014	1.38	120 ± 24
concentration: 7.04 (µM), S9 metabolic activation: without S9, exposure time: 24 hours	0.56	1.88	166
concentration: 8.8 (µM), S9 metabolic activation: with S9, exposure time: 3-4 hours	0.22 ± 0.085	1.37 ± 0.13	116 ± 16
concentration: 8.8 (µM), S9 metabolic activation: without S9, exposure time: 24 hours	0.82	1.72	136
concentration: 11 (µM), S9 metabolic activation: with S9, exposure time: 3-4 hours	0.31 ± 0.13	1.38 ± 0.37	114 ± 39
concentration: 11 (µM), S9 metabolic activation: without S9, exposure time: 24 hours	0.68	1.4	102
concentration: 13.7 (µM), S9 metabolic activation: with S9, exposure time: 3-4 hours	0.19 ± 0.042	1.71 ± 0.21	138 ± 15
concentration: 13.7 (µM), S9 metabolic activation: without S9, exposure time: 24 hours	0.58	1.74	108
concentration: 17.2 (µM), S9 metabolic activation: with S9, exposure time: 3-4 hours	0.19 ± 0.014	1.46	126 ± 20
concentration: 17.2 (µM), S9 metabolic activation: without S9, exposure time: 24 hours	0.46	1.74	123
concentration: 21.5 (µM), S9 metabolic activation: with S9, exposure time: 3-4 hours	0.33 ± 0.042	1.29 ± 0.042	108 ± 25
concentration: 21.5 (µM), S9 metabolic activation: without S9, exposure time: 24 hours	0.54	2.38	116
concentration: 26.8 (µM), S9 metabolic activation: with S9, exposure time: 3-4 hours	0.29 ± 0.071	2.74 ± 1.6	93.3 ± 41
concentration: 26.8 (µM), S9 metabolic activation: without S9, exposure time: 24 hours	0.78	1.92	129
concentration: 33.6 (µM), S9 metabolic activation: with S9, exposure time: 3-4 hours	0.22 ± 0.2	4.24 ± 3.7	90.1 ± 23
concentration: 33.6 (µM), S9 metabolic activation: without S9, exposure time: 24 hours	1.06	2.6	112
concentration: 41.9 (µM), S9 metabolic activation: with S9, exposure time: 3-4 hours	0.41 ± 0.3	3.93 ± 4.4	97.9 ± 44
concentration: 41.9 (µM), S9 metabolic activation: without S9, exposure time: 24 hours	0.58	1.78	122
concentration: 52.4 (µM), S9 metabolic activation: with S9, exposure time: 3-4 hours	0.39 ± 0.41	6.29 ± 6.7	101 ± 29
concentration: 52.4 (µM), S9 metabolic activation: without S9, exposure time: 24 hours	0.7	2.22	124
concentration: 65.5 (µM), S9 metabolic activation: with S9, exposure time: 3-4 hours	0.27 ± 0.13	2.48 ± 2.1	86.6 ± 31
concentration: 65.5 (µM), S9 metabolic activation: without S9, exposure time: 24 hours	0.7	2.24	111
concentration: 81.9 (µM), S9 metabolic activation: with S9, exposure time: 3-4 hours	0.29 ± 0.071	3.57 ± 3.1	101 ± 29
concentration: 81.9 (µM), S9 metabolic activation: without S9, exposure time: 24 hours	0.62	2.24	118
concentration: 102 (µM), S9 metabolic activation: with S9, exposure time: 3-4 hours	0.21 ± 0.042	2.34 ± 1.3	100 ± 41
concentration: 102 (µM), S9 metabolic activation: without S9, exposure time: 24 hours	0.86	2.08	124
concentration: 128 (µM), S9 metabolic activation: with S9, exposure time: 3-4 hours	0.23 ± 0.071	1.99 ± 1	115 ± 54
concentration: 128 (µM), S9 metabolic activation: without S9, exposure time: 24 hours	0.72	2.3	76
concentration: 160 (µM), S9 metabolic activation: with S9, exposure time: 3-4 hours	0.29 ± 0.042	2.14 ± 1.5	124 ± 63
concentration: 160 (µM), S9 metabolic activation: without S9, exposure time: 24 hours	1.22	4.04	114
concentration: 200 (µM), S9 metabolic activation: with S9, exposure time: 3-4 hours	0.34 ± 0.11	2.39 ± 1.5	124 ± 46
concentration: 200 (µM), S9 metabolic activation: without S9, exposure time: 24 hours	1.3	3.82	114

Nc1ccc2c(c1)C(=O)c1ccccc1C2=O [2-Aminoanthraquinone]
Conditions	hypodiploid nuclei frequency, CHO-K1 [2] [%]	micronucleus frequency, CHO-K1 [1] [%]	relative survival, CHO-K1 [3]
concentration: 4.55 (µM), S9 metabolic activation: with S9, exposure time: 3-4 hours	0.24	1.02	158
concentration: 4.55 (µM), S9 metabolic activation: without S9, exposure time: 24 hours	0.56	1.6	115
concentration: 5.69 (µM), S9 metabolic activation: with S9, exposure time: 3-4 hours	0.16	1.26	144
concentration: 5.69 (µM), S9 metabolic activation: without S9, exposure time: 24 hours	0.46	1.02	90.1
concentration: 7.11 (µM), S9 metabolic activation: with S9, exposure time: 3-4 hours	0.2	1.36	160
concentration: 7.11 (µM), S9 metabolic activation: without S9, exposure time: 24 hours	0.44	1.34	130
concentration: 8.88 (µM), S9 metabolic activation: with S9, exposure time: 3-4 hours	0.16	1.48	190
concentration: 8.88 (µM), S9 metabolic activation: without S9, exposure time: 24 hours	0.48	1.76	121
concentration: 11.1 (µM), S9 metabolic activation: with S9, exposure time: 3-4 hours	0.22	1.18	172
concentration: 11.1 (µM), S9 metabolic activation: without S9, exposure time: 24 hours	0.58	1.62	98.6
concentration: 13.9 (µM), S9 metabolic activation: with S9, exposure time: 3-4 hours	0.26	1.54	177
concentration: 13.9 (µM), S9 metabolic activation: without S9, exposure time: 24 hours	0.54	1.6	123
concentration: 17.4 (µM), S9 metabolic activation: with S9, exposure time: 3-4 hours	0.26	1.74	187
concentration: 17.4 (µM), S9 metabolic activation: without S9, exposure time: 24 hours	0.6	1.26	105
concentration: 21.7 (µM), S9 metabolic activation: with S9, exposure time: 3-4 hours	0.3	1.66	172
concentration: 21.7 (µM), S9 metabolic activation: without S9, exposure time: 24 hours	0.48	1.68	102
concentration: 27.1 (µM), S9 metabolic activation: with S9, exposure time: 3-4 hours	0.36	1.34	132
concentration: 27.1 (µM), S9 metabolic activation: without S9, exposure time: 24 hours	1.06	1.62	57.8
concentration: 33.9 (µM), S9 metabolic activation: with S9, exposure time: 3-4 hours	0.26	1.82	118
concentration: 33.9 (µM), S9 metabolic activation: without S9, exposure time: 24 hours	0.86	1.79	40.6
concentration: 42.4 (µM), S9 metabolic activation: with S9, exposure time: 3-4 hours	0.38	1.76	134
concentration: 42.4 (µM), S9 metabolic activation: without S9, exposure time: 24 hours	–	–	18
concentration: 53 (µM), S9 metabolic activation: with S9, exposure time: 3-4 hours	0.28	2.16	118
concentration: 53 (µM), S9 metabolic activation: without S9, exposure time: 24 hours	–	–	4.36
concentration: 66.2 (µM), S9 metabolic activation: with S9, exposure time: 3-4 hours	0.28	1.96	133
concentration: 66.2 (µM), S9 metabolic activation: without S9, exposure time: 24 hours	–	–	2.45
concentration: 82.7 (µM), S9 metabolic activation: with S9, exposure time: 3-4 hours	0.32	2.04	147
concentration: 82.7 (µM), S9 metabolic activation: without S9, exposure time: 24 hours	–	–	1.2
concentration: 103 (µM), S9 metabolic activation: with S9, exposure time: 3-4 hours	0.22	1.94	154
concentration: 129 (µM), S9 metabolic activation: with S9, exposure time: 3-4 hours	0.26	2.08	160
concentration: 129 (µM), S9 metabolic activation: without S9, exposure time: 24 hours	–	–	3.14
concentration: 162 (µM), S9 metabolic activation: with S9, exposure time: 3-4 hours	0.4	2.7	172
concentration: 202 (µM), S9 metabolic activation: with S9, exposure time: 3-4 hours	0.44	2.32	175

OC(Cn1cncn1)(Cn1cncn1)c1ccc(F)cc1F [Fluconazole]
Conditions	hypodiploid nuclei frequency, CHO-K1 [2] [%]	micronucleus frequency, CHO-K1 [1] [%]	relative survival, CHO-K1 [3]
concentration: 4.5 (µM), S9 metabolic activation: with S9, exposure time: 3-4 hours	0.28	1.06	136
concentration: 4.5 (µM), S9 metabolic activation: without S9, exposure time: 24 hours	0.66	1.44	103
concentration: 5.63 (µM), S9 metabolic activation: with S9, exposure time: 3-4 hours	0.34	1.34	112
concentration: 5.63 (µM), S9 metabolic activation: without S9, exposure time: 24 hours	0.66	1.7	122
concentration: 7.04 (µM), S9 metabolic activation: with S9, exposure time: 3-4 hours	0.22	1.14	111
concentration: 7.04 (µM), S9 metabolic activation: without S9, exposure time: 24 hours	1.1	2.7	98.9
concentration: 8.8 (µM), S9 metabolic activation: with S9, exposure time: 3-4 hours	0.3	1.14	106
concentration: 8.8 (µM), S9 metabolic activation: without S9, exposure time: 24 hours	0.78	1.82	85.2
concentration: 11 (µM), S9 metabolic activation: with S9, exposure time: 3-4 hours	0.2	1.2	110
concentration: 11 (µM), S9 metabolic activation: without S9, exposure time: 24 hours	0.82	1.86	105
concentration: 13.7 (µM), S9 metabolic activation: with S9, exposure time: 3-4 hours	0.38	1.24	132
concentration: 13.7 (µM), S9 metabolic activation: without S9, exposure time: 24 hours	0.82	1.78	106
concentration: 17.2 (µM), S9 metabolic activation: with S9, exposure time: 3-4 hours	0.14	0.8	96.6
concentration: 17.2 (µM), S9 metabolic activation: without S9, exposure time: 24 hours	0.74	1.82	111
concentration: 21.5 (µM), S9 metabolic activation: with S9, exposure time: 3-4 hours	0.36	0.98	108
concentration: 21.5 (µM), S9 metabolic activation: without S9, exposure time: 24 hours	0.94	1.84	85.2
concentration: 26.8 (µM), S9 metabolic activation: with S9, exposure time: 3-4 hours	0.34	1.3	138
concentration: 26.8 (µM), S9 metabolic activation: without S9, exposure time: 24 hours	0.9	1.34	92.1
concentration: 33.6 (µM), S9 metabolic activation: with S9, exposure time: 3-4 hours	0.24	0.72	129
concentration: 33.6 (µM), S9 metabolic activation: without S9, exposure time: 24 hours	1.02	1.06	95.6
concentration: 41.9 (µM), S9 metabolic activation: with S9, exposure time: 3-4 hours	0.2	1.22	121
concentration: 41.9 (µM), S9 metabolic activation: without S9, exposure time: 24 hours	0.92	1.9	76.1
concentration: 52.4 (µM), S9 metabolic activation: with S9, exposure time: 3-4 hours	0.3	1.28	120
concentration: 52.4 (µM), S9 metabolic activation: without S9, exposure time: 24 hours	1.14	1.42	92.8
concentration: 65.5 (µM), S9 metabolic activation: with S9, exposure time: 3-4 hours	0.26	0.92	111
concentration: 65.5 (µM), S9 metabolic activation: without S9, exposure time: 24 hours	0.6	1.5	66.5
concentration: 81.9 (µM), S9 metabolic activation: with S9, exposure time: 3-4 hours	0.12	0.56	121
concentration: 81.9 (µM), S9 metabolic activation: without S9, exposure time: 24 hours	1.08	1.26	71.3
concentration: 102 (µM), S9 metabolic activation: with S9, exposure time: 3-4 hours	0.2	0.86	111
concentration: 102 (µM), S9 metabolic activation: without S9, exposure time: 24 hours	1.1	1.36	70.6
concentration: 128 (µM), S9 metabolic activation: with S9, exposure time: 3-4 hours	0.3	0.98	108
concentration: 128 (µM), S9 metabolic activation: without S9, exposure time: 24 hours	1.54	1.32	68.9
concentration: 160 (µM), S9 metabolic activation: with S9, exposure time: 3-4 hours	0.36	1.36	117
concentration: 160 (µM), S9 metabolic activation: without S9, exposure time: 24 hours	1.1	1.44	68.1
concentration: 200 (µM), S9 metabolic activation: with S9, exposure time: 3-4 hours	0.32	1.72	107
concentration: 200 (µM), S9 metabolic activation: without S9, exposure time: 24 hours	1.42	2	63.7
